Assay results reported in publication PMC4336329 (PLoS ONE, 2015).
The campaign covered roughly 310,000 compounds. About 2,200 (0.71%) showed an effect of 50% or more. Effects have a minus sign here. The list shows a part of the results.

biological target: human ether-à-go-go-related gene (hERG) potassium channel (human, UniProt Q12809); assay: primary screen, population patch clamp on CHO cells stably expressing hERG
Sequence (Q12809 whole entry, looked up): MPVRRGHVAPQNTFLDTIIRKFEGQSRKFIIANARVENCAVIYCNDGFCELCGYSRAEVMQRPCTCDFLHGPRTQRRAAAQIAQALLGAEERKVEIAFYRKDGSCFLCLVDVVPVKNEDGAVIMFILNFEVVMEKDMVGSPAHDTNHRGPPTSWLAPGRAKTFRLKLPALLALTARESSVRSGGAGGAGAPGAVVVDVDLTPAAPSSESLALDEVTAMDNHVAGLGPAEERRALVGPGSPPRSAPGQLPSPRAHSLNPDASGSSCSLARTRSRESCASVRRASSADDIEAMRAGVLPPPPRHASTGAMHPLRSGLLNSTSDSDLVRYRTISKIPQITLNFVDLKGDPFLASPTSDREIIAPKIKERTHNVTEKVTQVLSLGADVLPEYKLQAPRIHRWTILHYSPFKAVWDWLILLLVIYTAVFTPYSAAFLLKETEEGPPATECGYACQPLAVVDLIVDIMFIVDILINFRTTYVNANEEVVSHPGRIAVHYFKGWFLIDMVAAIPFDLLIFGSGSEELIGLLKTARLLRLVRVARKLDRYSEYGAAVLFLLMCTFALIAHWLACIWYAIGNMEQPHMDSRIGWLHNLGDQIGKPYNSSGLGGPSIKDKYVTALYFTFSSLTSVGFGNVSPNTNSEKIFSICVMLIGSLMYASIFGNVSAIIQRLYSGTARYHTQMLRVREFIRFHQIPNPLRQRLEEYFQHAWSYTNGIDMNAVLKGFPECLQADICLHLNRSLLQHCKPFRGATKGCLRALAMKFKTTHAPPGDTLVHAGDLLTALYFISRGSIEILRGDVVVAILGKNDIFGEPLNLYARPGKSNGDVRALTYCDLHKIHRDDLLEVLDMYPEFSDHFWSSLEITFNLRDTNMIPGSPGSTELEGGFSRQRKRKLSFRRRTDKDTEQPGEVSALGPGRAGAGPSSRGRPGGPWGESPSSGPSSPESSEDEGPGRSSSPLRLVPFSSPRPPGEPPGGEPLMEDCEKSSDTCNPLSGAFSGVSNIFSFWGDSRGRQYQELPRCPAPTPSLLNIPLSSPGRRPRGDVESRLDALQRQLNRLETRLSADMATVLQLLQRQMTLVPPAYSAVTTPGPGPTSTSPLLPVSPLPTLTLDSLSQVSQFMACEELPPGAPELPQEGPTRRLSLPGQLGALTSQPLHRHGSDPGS

Point of comparison: CCCOC(=O)Nc1nc(-c2ccc(C)cc2)c(C)s1, “hERG current change (%, negative = inhibition) at 1uM” value 14%. Against it:
- OCCCn1c(C2CCCN2c2nc(-c3ccc(Cl)cc3)cs2)nc2cc(Cl)c(N3CCCCC3)cc21 (stereo not shown) — lower, 5.88%
- Cc1ccccc1OCC(=O)NNC(=O)c1cc(S(=O)(=O)N2CCOCC2)ccc1N1CCCC1 — lower, 13.6%
- Cc1ccc(S(=O)(=O)NC(C(=O)OCC(=O)NC2CCS(=O)(=O)C2)C(C)C)cc1 (stereo not shown) — lower, 8.41%
- CNC(=O)COc1coc(CN2CCN(c3ccccc3F)CC2)cc1=O — lower, 12.6%
- C#CCCOC(=O)N1C2=NC(C(=O)OC)=C(C(=O)OC)[C@@H]3N(CC=C)c4ccccc4[C@]23C[C@H]1C(=O)OC — lower, 4.02%
- COc1cc(C2Nc3cc(Cl)c(S(N)(=O)=O)cc3S(=O)(=O)N2)ccc1OCc1ccccc1 (stereo not shown) — lower, 5.51%
- CCOC(=O)c1ccc(N2CCCCC2)c(NS(=O)(=O)c2ccc(C)cc2)c1 — higher, 14.2%
- Nc1c(C2=NCCO2)nnn1Cc1ccccc1 — higher, 18.3%
- COc1cc(/C=C(/NC(=O)c2ccccc2)C(=O)Nc2cccc(O)c2)c([N+](=O)[O-])cc1OC — lower, 9.87%
- O=C(Nc1cccc(NC(=O)c2cncc(Br)c2)c1)c1cncc(Br)c1 — higher, 17.4%
- COc1ccc(NC(=O)CS(=O)(=O)Cc2ccccc2)c([N+](=O)[O-])c1 — lower, -16.5%
- CCCc1ccc2oc(C(=O)N3CCC(COC)C3)c(C)c2c1 (stereo not shown) — higher, 14.4%
- CC1CC(C)(C)NC(=S)N1CCC(=O)N1CCN(c2ccccc2)CC1 (stereo not shown) — lower, 9.01%
- CCN(CC)CCCN(C(=O)c1ccc(OC)cc1)c1nc(-c2ccc(OC)cc2)cs1 — lower, -15.5%
- CCN1CCN(c2c(/C=C3\SC(=S)N(Cc4ccco4)C3=O)c(C)c(C#N)c(=O)n2C)CC1 — lower, -6.7%
- Cc1ccccc1-c1cc(-c2ccccc2O)n[nH]1 — lower, 11.1%
- Cc1ccc(OCC(=O)Nc2ccccc2C(=O)N2CCCCC2)cc1 — lower, 4.35%
- CC(=O)c1cccc(NC(=O)C2CCCN(S(C)(=O)=O)C2)c1 (stereo not shown) — lower, 10.4%
- Cc1cccc(N2C(=O)C3C4C=CC(C5CC45)C3C2=O)n1 (stereo not shown) — higher, 15%
- C/C(=N\OCc1ccccc1)c1c(O)cc(C(C)C)n(-c2ccccc2)c1=O — lower, 3.4%
- COCCNC(=O)COc1cccc2c1OC(C)(C)C2 — lower, 4.7%
- COc1ccc(-n2nnnc2/C=C\Nc2ccccc2C(=O)c2ccccc2)cc1 — lower, 11.3%
- COc1ccc(C2CC(C(F)(F)F)n3nc(CO)c(Cl)c3N2)cc1OC (stereo not shown) — lower, 11.9%
- COc1ccc(C(=O)Nc2cccnc2)cc1OC — higher, 17.8%
- CC(NC(=O)CSCc1ccccc1Br)c1ccccc1 (stereo not shown) — lower, 4.12%
- CCOc1cc(C(=O)Nc2ccc(S(=O)(=O)Nc3cnc4ccccc4n3)cc2)cc(OCC)c1OCC — lower, 12.2%
- CC(C)(Oc1ccc(Cl)cc1)C(=O)OCn1nnc2ccccc2c1=O — higher, 18.2%
- Cn1c(CNC(=O)CCNC(=O)c2cccc(Cl)c2)cc(=O)n(C)c1=O — lower, 10.3%
- CN1C(C)(C)CCCC1(C)C.O=C(O)C(O)C(O)C(=O)O — higher, 15.2%
- CCCN(CCC)C(=O)Cn1c(=O)c2sccc2n2c(=S)sc(-c3ccccc3)c12 — lower, 8.57%
- CCc1ccc(C(=O)Nc2ccc(OC)c(S(=O)(=O)N3CCOCC3)c2)cc1 — lower, -3.08%
- CCS(=O)(=O)N1Cc2ccccc2CC1C(=O)Nc1ccc(F)c(F)c1F (stereo not shown) — lower, 9.21%
- C/C(O)=C(\C#N)C(=O)Nc1cc(Br)ccc1Br — higher, 17%
- Nc1nc2n(n1)C(c1ccco1)CC(c1ccc(Cl)cc1)N2 (stereo not shown) — lower, -0.238%
- Cc1ccccc1CN(C)C(=O)[C@H](Cc1ccccc1)NC(=O)c1ccco1 — lower, 8.99%
- Cc1ccc(Nc2nc(N)c([N+](=O)[O-])c(N3CCC(C)CC3)n2)cc1C — lower, 4.62%
- CC1CN(C(=O)CN2C(=O)NC3(CCCCCC3)C2=O)CC(C)O1 (stereo not shown) — lower, 10.7%
- COc1ccccc1[C@@]1(C)ON(c2ccccc2C(F)(F)F)C1=O — lower, 10%
- CCN(CC)Cc1c(C(=O)OC(C)C)nnn1-c1nonc1N — lower, 10.7%
- CCC(C)(C)NC(=S)Nc1ccc(-c2nc3ccc(C)cc3s2)cc1 — lower, 13.2%
- O=c1c(N2CCCCC2)coc2ccccc12 — higher, 14.2%
- CC(=O)c1cccc(NC(=O)c2ccc(NC(=O)CCS(=O)(=O)c3cccs3)cc2)c1 — higher, 16.4%
- Cc1ccc(S(=O)(=O)N2CCC3(CC2)OCCO3)s1 — lower, 13.9%
- CCCCC1CCC(C(=O)N(C)CC(=O)Nc2cccc(F)c2)CC1 (stereo not shown) — higher, 14.6%
- COC(=O)C1=Nc2ccccc2/C1=C\c1c(O)n(-c2ccc(OC)cc2)c(=O)[nH]c1=O — lower, 4.75%
- Cc1csc2ncc(C(=O)NCc3ccc4c(c3)OCO4)c(=O)n12 — lower, 8.03%
- CCn1ncc(Br)c1C(=O)Nc1ccc(C(C)C)cc1 — lower, 11.1%
- CC(Oc1ccc2ccc(=O)oc2c1)C(=O)NC(Cc1c[nH]c2ccc(O)cc12)C(=O)O (stereo not shown) — lower, 9.61%
- O=C(Nc1cccc(Cl)c1N1CCOCC1)c1cccs1 — lower, 5.11%
- Cc1cc(C)cc(NC(=O)C(OC(=O)C2=COCCO2)c2ccccc2)c1 (stereo not shown) — lower, 6.62%
- O=C(CSc1nnc2ccc(-c3ccccn3)nn12)Nc1ccccc1F — higher, 23.4%
- O=C(CCS(=O)(=O)Cc1ccccc1)N1CCc2ccccc2C1 — lower, 8.69%
- O=C(CCC(=O)Nc1ccccc1Cl)NN=C1CCCC1 — lower, 11.7%
- COc1cccc(NC(=O)COC(=O)Cc2ccc(Br)cc2)c1 — lower, 11.8%
- COC(=O)C1=C(C)NC(=O)NC1c1ccc(-c2ccc(F)cc2)o1 (stereo not shown) — lower, 12.9%
- CCN=C1SC(CC(=O)NC(C)c2ccccc2)C(=O)N1CC (stereo not shown) — lower, 4.49%
- CCN(CC)S(=O)(=O)c1ccc(C(=O)Nc2cc(C)cc(C)c2)cc1 — lower, 13%
- CCOC(=O)C[C@H]1c2ccccc2S(=O)(=O)N1c1cccc(OC)c1 — lower, 8.07%
- COC(=O)c1ccc(NC(=O)C23CC4CC(C2)CC(n2cnc(Cl)n2)(C4)C3)cc1 — lower, 12.6%
- CCCN1CCN(S(=O)(=O)c2ccc3c(c2)NC(=O)C(C)S3)CC1 (stereo not shown) — lower, 6.81%
- Cc1ccc(NS(=O)(=O)c2ccc3c(c2)NC(=O)C(C)C(=O)N3)c(Cl)c1 (stereo not shown) — lower, 4.38%
- CCOc1ccccc1OCc1nn2c(COc3ccccc3)nnc2s1 — lower, -0.449%
- CC(C)(C)C1CCc2c(C(=O)NNC(=O)/C=C/C(=O)O)csc2C1 (stereo not shown) — higher, 14.8%
- CCCn1cc(SCC(=O)NCc2ccc3c(c2)OCO3)c2ccccc21 — lower, 10.4%
- CC/C(C)=N/NC(=O)c1[nH]c2ccc(C)cc2c1-c1ccccc1 — lower, -1.75%
- COc1ccc2cc(C(=O)N(C)CC(=O)Nc3ccccc3Br)ccc2c1 — lower, 4.14%
- Cc1cccc(C(=O)Nc2ccccc2-c2nnn(CC(=O)Nc3ccc4c(c3)OCCO4)n2)c1 — lower, 12.2%
- Cc1cc(NC(=O)CSc2nnc(COc3cccc(C)c3C)n2Cc2ccco2)no1 — lower, 2.63%
- CC1CCN(C(=O)Cn2cc(S(=O)(=O)CC(=O)N3CCOCC3)c3ccccc32)CC1 — lower, 6.8%
- CCN(CC)CCN=C(C)c1c(O)n(-c2ccccc2OC)c(=O)[nH]c1=O — lower, 5.94%
- NC(=O)c1sc(-c2ccsc2)cc1NS(=O)(=O)c1ccc(C(F)(F)F)cc1 — lower, 12.5%
- O=C(NCCC1CCCCN1S(=O)(=O)c1cccs1)C(=O)Nc1ccc(F)cc1F (stereo not shown) — lower, 13%
- O=C(N/N=C/c1cccc(NC(=O)c2ccc(Cl)cc2)c1)c1cccc(O)c1 — lower, 10.9%
- O=C(NCCc1ccccn1)c1ccc2nc(Cc3ccccc3F)oc2c1 — lower, -4.32%
- CSc1ncc(CN2CCc3c([nH]c4ccccc34)C2c2cccc(O)c2)cn1 (stereo not shown) — lower, 10.4%
- CSC1=C(C#N)C(c2ccccc2Cl)C2=C(N1)c1ccccc1C2=O (stereo not shown) — higher, 17.2%
- O=C(Cc1cccs1)Nc1ccc2c(c1)C(=O)OC2 — lower, 11.4%
- CC(=O)NC(=S)Nc1ccc([N+](=O)[O-])cc1C — lower, -3.41%
- Cc1oc(C)c2c(=O)ccc3c(c12)OC(N)=C(C#N)C3c1ccc(F)cc1 (stereo not shown) — lower, -6.81%
- Cc1cccc(C)c1NC(=O)COC(=O)CN1C(=O)C2CCCCC2C1=O (stereo not shown) — lower, 2.37%
- COc1ccc(/C=C(\C#N)C(=O)OCC(=O)NC2CC2)cc1 — lower, 3.16%
- Cn1nc([N+](=O)[O-])c(C(C#N)c2ccccn2)c(Cl)c1=O (stereo not shown) — lower, 9.21%
- Cn1c(=NC(=O)CS(=O)(=O)c2ccccc2)sc2cc([N+](=O)[O-])ccc21 — lower, -5.77%
- Cc1c(N=Cc2c(O)n(Cc3ccc(F)cc3)c(=O)[nH]c2=O)c(=O)n(-c2ccccc2)n1C — lower, 3.44%
